Test results reported in the RNAGym collection of RNA variant scans (doi:10.7554/elife.90254).
Read counts are not given, so values of variants with three or more changes are uncertain.

B1: OR4K15 (parent)
chain: GUUAACGGUCAUAGGCCAUGGAAACUAGGAGCACCAUUUCGCUGCCAGUGAAGAAAUGAACAAAGAAAAUCUGGGCCAGGCAGGCAUCAAAAGAAAUAGUCUUGCGCUCAACCAGAAAGUCUGUAAUCAUUUUAAGGGUA

Variants of: B1
Assay: self-cleavage, relative activity (ratio to wild type); higher = more cleavage; in vitro, sequencing; the parent is a self-cleaving ribozyme

Row | Variant | self-cleavage
1 | A52G A60G A110G | 0.06
2 | A30C C109U A129U | 0.18
3 | U43C U70C C112U U127C | 0.01
4 | A22U A69G U87C U132G | 0.94
5 | G48A A96C A126G | 0.4
6 | G31C A68G U70C A96G | 0.21
7 | A22G A30G U43C A54G A62G U70C | 1.44
8 | A4G C42U G58U A62G | 1.04
9 | A52C U108C C113U | 0
10 | U9C A30U C45A A78G U120C A140G | 0.09
11 | U43G G50A U131C | 1.58
12 | A23G A60U U100C | 1.92
13 | A24G A36G A55U U70C U102C A111G A140G | 0.02
14 | U19A U43A U132A | 0.72
15 | G31A A66G U70C | 0.35
16 | A82U U100C U108G | 0.01
17 | A5G A52U A86U U130C U131C | 0.81
18 | A36C U43C U49C | 1.76
19 | A24G A51G A110G | 0.06
20 | A55G A63G A126G | 0.93
21 | G7A U9C U37C A55G U102C | 1.65
22 | U38C U43A G58A | 1.78
23 | A18U A94G A117G | 1.61
24 | U43C A86G A110G A140U | 0.12

Row | Variant | self-cleavage
25 | U9C A60G A116G G138A | 1.01
26 | U37C U72C U87C | 0.27
27 | C16U A27U G99U | 0.78
28 | C6U A13U U37C A59G A114G | 0.31
29 | U2G G53U U122C | 0.41
30 | A51U U57A A110G A126G | 0.05
31 | A24U U57A A116G | 0.22
32 | U38G A67U A91G U102C | 1.91
33 | U19A U100C A135G | 2.04
34 | U19C A59G G99U | 0.37
35 | U72C U100C U139C | 0.35
36 | A54G A78U A92G U120C | 0.06
37 | U2C U72C A82U U120C | 0.03
38 | U26A A51U A55G G123A A129G | 0.34
39 | A118G U120C U132C A140G | 0.17
40 | A60U U97C U102A U132C | 0.94
41 | A54G G65A A94U U120A | 2.21
42 | A47U A52G A78U G84A A90G | 0.91
43 | A62G U100C U102C | 2.15
44 | A22G U37C A68G A126G | 1.22
45 | U38C U39C A135G | 1.43
46 | U37C A59C A91G U139C | 0.59
47 | A23G A95G A96G | 0.98
48 | G41A A89G A110U U131C A135G | 0.95

Row | Variant | self-cleavage
49 | U19C U43C A60G C85G A117U A118U | 1.36
50 | A23G A111U U132C | 0.08
51 | U2C U87C G93U | 1.26
52 | G15A A30U G74U A92G | 0.13
53 | A23U A64U U103C | 0.71
54 | A51G A54U A89U | 0.76
55 | A95G A126G G138A | 1.17
56 | G20U C35U U57C A60U A92U | 0.09
57 | U3C G104A A117G G138A | 0.03
58 | A18G A55G A92G A94G U100C | 1.18
59 | U39C A82U U87C | 0.14
60 | A89G A96G U122C | 1.22
61 | U12A G29A U49A A68G | 1.83
62 | U9C A68G A92G U132C A140G | 1.79
63 | A63G U72C A82C A92G C112U | 0.03
64 | A23G A24U U39A U57C A64G A67G U72A A94G | 0.12
65 | A5G A33G A52G | 0.41
66 | A18G U70C U108C | 0.01
67 | U26C U39A U43C A64G A86G | 1.02
68 | A30G A59G U132C | 2.03
69 | U49C A94G U103C | 1.32
70 | A82G A92G A126C | 0.27
71 | A36C U39A U97A | 1.79
72 | A64G A91U A126G | 1.52

Row | Variant | self-cleavage
73 | A55G A86U A95G | 2.26
74 | A33U A64G A67G A90U A96G A135U | 1.44
75 | U70C U102C A114G U127C | 0.07
76 | A60G U108C A111G | 0.01
77 | C45A A59G U120A | 0.55
78 | U43G A51G A66U | 0.68
79 | A22G U57C U108C A125U | 0.04
80 | A30G A89G U102C U108C U120C | 0
81 | A4G A30G G53U G106C | 0
82 | A86U A89G A94G | 1.78
83 | C25U C113A A129G U133C | 0
84 | G48A A94U G138C | 1.75
85 | A24G U39A U57C U122C | 1.93
86 | A52G U108C A126G | 0
87 | A33U C34A U37C U43A U70C | 0.78
88 | U43C A55U A94G U127C | 0.6
89 | A54G A62G A66G | 1.2
90 | U49C U72A U87A U122C | 0.15
91 | U9A U43A A64U U100C | 1.79
92 | U39C U72C A78U U108C | 0.02
93 | U26A A111G A129G | 0.01
94 | G29A A30U A33G A52U G74C | 0.24
95 | G14A A47U A63G A92G A135U | 0.13
96 | U49C U57C U70C | 0.31

Row | Variant | self-cleavage
97 | A24U A33G A51G A64G | 0.4
98 | U72A A95G A98G | 0.04
99 | A59G G74A A96G | 0.17
100 | G15A U43C A63U A64G A95G | 1.48
101 | A33G U72C A92U A111G C121U | 0
102 | A69G G75C U122C | 0.07
103 | A54G A67G G75A C112U | 0.03
104 | U39C U43C A67G | 0.75
105 | G15C U38C A60G A98G U120C | 0.45
106 | G7U U26A A67G | 1.51
107 | A22G U39A U49C U103C | 0.95
108 | A95G C105G A110G | 0.02
109 | A27U A117G A125G | 0.57
110 | U37C A117G U122C | 1.41
111 | A30G U49A A66G A96G | 1.62
112 | A18G A68G U87C A91G | 0.94
113 | A52G A60C A67G A92U | 1.89
114 | U3C C61U U133C | 1.59
115 | U72C A89U A96G | 0.26
116 | A24G A30G A54U A82G U100C U108C | 0.05
117 | A18U A52U A66G U127G | 0.5
118 | U57C A92G U131C A140G | 1.05
119 | A69G A86U U87G | 1.72
120 | A22U A64U U124C | 0.78

Row | Variant | self-cleavage
121 | A90G U130C U139C | 0.12
122 | U2C A51G A89G | 1.54
123 | A55G A82U A86G A111G | 0.01
124 | A5U A33U U102C | 1.74
125 | A96U A117G U122G | 2.4
126 | A52G A67G A82G A114G | 0.17
127 | A63U A64G C88G U127C | 0.84
128 | A4G A22U U72C A92G | 0.31
129 | U39C A60G U100C G138A | 1.68
130 | U3C A33U A47G A94G | 1.17
131 | A36G U49C U97C | 1.26
132 | U9C A33G A36G U38C | 1.62
133 | A27G U39C U57A A60G U130G | 0.87
134 | A55G A62C A64U C71A A92G U122C | 0.14
135 | A36U U49C A95U | 0.62
136 | G31A G80U A89G U127G | 0.22
137 | U19C A69G A118G | 1.07
138 | U49C A66G A69G A114U A118G | 0
139 | U19A A30G C45U A68C U103C | 0.82
140 | U2C C35U A68G U87C | 0.75
141 | U38C A78U U108C | 0.02
142 | A94G A110G U122A A140U | 0
143 | A27G U70C A129U | 0.26
144 | U3C A22G A98G U103C | 0.11

Row | Variant | self-cleavage
145 | U37C G41A U49A U103C A140U | 0.97
146 | A30G A95G A110G A117G U124C | 0.11
147 | U39C A67G U103C U130C | 0.45
148 | U2A U19C A47G A56G | 0.94
149 | U43C A54G A67G C105U A116G | 0.03
150 | A4G A59U C101U U108C | 0.09
151 | U38C A63G A68G A78G A90G A110G U122A | 0.04
152 | U19C A47U A92U | 0.66
153 | A24G A56G U70C | 0.55
154 | A33G U37C U87C | 0.85
155 | A23G U38C U43A A89G U127C | 0.93
156 | A47G U70A U87C | 0.41
157 | U9A U38C A78U A82G | 0.07
158 | U38C A47G U72C U139C | 0.17
159 | A22G A54G U122C | 0.88
160 | A64G A66G A90U U100C A116G | 1.94
161 | A30G A92U A98G U102C A117G A135G | 1.13
162 | A22U C32A U87A | 1.86
163 | A33G U70C A95G | 0.78
164 | A5G U49A A90C A125G | 0.44
165 | A66G A78G A96G | 0.25
166 | A62G A63G U132A | 1.85
167 | U120C U124A A125G | 0.75
